# ± gives the standard deviation of the averaged measurements. Whole data set: some 33,000 sequences, median “E-score (dimensionless, -0.5 to 0.5)” near -0.049, cut for the highest 2% near 0.37. This is one part of the list.
# Tested on: T1, PmTbr T-box DNA-binding domain (GST fusion)
# T1 sequence: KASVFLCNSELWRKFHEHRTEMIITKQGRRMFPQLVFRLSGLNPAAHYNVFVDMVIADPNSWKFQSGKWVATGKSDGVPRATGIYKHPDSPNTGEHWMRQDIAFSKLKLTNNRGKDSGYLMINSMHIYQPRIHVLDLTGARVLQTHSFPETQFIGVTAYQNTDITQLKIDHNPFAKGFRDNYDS
# Experiment: PBM E-score of 8-mer (E-score (dimensionless, -0.5 to 0.5)); Tbr is Tbrain of the sea star Patiria miniata (Pm) or the sea urchin Strongylocentrotus purpuratus (Sp); higher = stronger binding preference; most listed sequences are background and not binding sites
# Conditions: the construct has about 5 more residues each side
# Summary of the method: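 Each ungapped 8-mer received an enrichment E-score from the Universal PBM Analysis Suite, averaged over duplicate arrays. The proteins were Tbr T-box DNA-binding domains, covering the whole T-box plus about five flanking residues, fused to GST and expressed in BL21 E. coli at 20 °C before glutathione affinity purification. Universal Agilent oligonucleotide arrays were made double-stranded by primer extension and incubated with 200 nM protein in PBS (pH 7.5). The arrays were then scanned and quantified, and every 8-mer was scored from probe intensities.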
row,Sequence,PBM E-score of 8-mer
1,GCGTCACA,0.307 ± 0.014
2,ACGTCGGC,0.00644 ± 0.054
3,CCTCCAAA,-0.206 ± 0.018
4,ACCGCACA,0.0956 ± 0.021
5,AAAGGCTA,-0.25 ± 0.021
6,ACCTATTC,0.0263 ± 0.025
7,GTCATTGA,-0.165 ± 0.021
8,AAATCGGA,-0.106 ± 0.047
9,GATTCTAA,-0.138 ± 0.0011
10,AAGTCCGG,-0.166 ± 0.026
11,GTGGTGAA,0.153 ± 0.0049
12,TGCAACCA,-0.121 ± 0.053
13,CCTGGACA,-0.0304 ± 0.0074
14,CTGCACCA,-0.0587 ± 0.033
15,CCAGGCAA,-0.165 ± 0.011
16,CCTAGTAC,-0.14 ± 0.071
17,AGCGAGAC,0.0463 ± 0.032
18,CTTTTGTA,-0.189 ± 0.047
19,ACGACGGG,-0.0262 ± 0.074
20,CTCATGCC,-0.0878 ± 0.1
21,CAGTAACC,0.107 ± 0.0031
22,ATTCCCCA,0.0529 ± 0.071
23,GGTTATCA,0.0372 ± 0.034
24,CTTCTGGC,-0.0431 ± 0.0062
25,AACTTTGT,0.102 ± 0.084

row,Sequence,PBM E-score of 8-mer
1,CACGGGCA,-0.054 ± 0.0068
2,ATCACTTC,0.293 ± 0.015
3,AGACCCTC,-0.0721 ± 0.039
4,CCCTTAAC,-0.0895 ± 0.049
5,CGTGGAAG,0.00548 ± 0.012
6,CGCCTTAA,0.102 ± 0.025
7,GGGGGACA,-0.192 ± 0.053
8,GGACCTAA,-0.0476 ± 0.0062
9,CATTCACG,0.229 ± 0.041
10,GGTGTGGA,0.432 ± 0.015
11,AGAGGTCA,-0.0997 ± 0.006
12,CGCCGTGA,0.0902 ± 0.039
13,CACGGGGC,-0.0328 ± 0.01
14,ATATAATA,-0.307 ± 0.026
15,GGGTAACA,0.218 ± 0.064
16,CACGCGTC,0.277 ± 0.041
17,CGCCATGC,-0.00622 ± 0.076
18,CAGAATGA,-0.269 ± 0.049
19,GAAATGAA,0.0917 ± 0.012
20,ATCCTTGC,-0.0517 ± 0.022
21,AACCATTG,-0.14 ± 0.016
22,CCAAAGCA,-0.0538 ± 0.051
23,AATTACCC,-0.193 ± 0.032
24,CCAGAACC,-0.246 ± 0.022
25,CCCTAGCA,0.0225 ± 0.093

row,Sequence,PBM E-score of 8-mer
1,GCTCTGCC,-0.0653 ± 0.041
2,AGCTTGGG,-0.129 ± 0.044
3,GGTTTGCA,0.0665 ± 0.055
4,CGACGAAG,0.135 ± 0.016
5,GTGTAGAA,0.164 ± 0.051
6,CTATAGAC,-0.218 ± 0.0032
7,ACTACCTA,-0.155 ± 0.017
8,CATTGAGA,0.184 ± 0.024
9,GGATTCCC,-0.18 ± 0.031
10,GGGTTAAC,-0.0918 ± 0.013
11,CAGCGTCA,0.0544 ± 0.014
12,CCAGGTCA,-0.0521 ± 0.032
13,AGCAAACA,0.0237 ± 0.023
14,TGGCTCAA,0.104 ± 0.079
15,AATCTGAT,-0.141 ± 0.16
16,CCTCTTAC,-0.0159 ± 0.024
17,CGTTCAAA,0.0323 ± 0.058
18,CATTGCGA,-0.0207 ± 0.036
19,AGTTCCTG,0.0662 ± 0.015
20,ACCAGTTA,-0.16 ± 0.033
21,CGCTGTCA,0.162 ± 0.0054
22,AGTGTCTC,0.183 ± 0.047
23,CCGTTTAA,-0.145 ± 0.086
24,AATCCTCG,-0.0177 ± 0.0031
25,GATGTTGC,-0.0903 ± 0.014

row,Sequence,PBM E-score of 8-mer
1,ACAGACTC,-0.222 ± 0.028
2,CACCCACG,0.254 ± 0.036
3,ATATGGCA,0.0088 ± 0.064
4,GCTGCCAA,0.118 ± 0.066
5,CACACAGG,0.119 ± 0.044
6,AAATCGTA,0.0368 ± 0.024
7,GTGTGTGA,0.41536 ± 0.00023
8,GAATGGTA,-0.0684 ± 0.07
9,ATGGCAAC,0.037 ± 0.015
10,GTTCTTCA,-0.0618 ± 0.02
11,CACTGCAC,0.0832 ± 0.0064
12,AGTTCTTG,-0.0105 ± 0.0029
13,CGGAATAA,-0.0824 ± 0.028
14,ATGGTAAA,-0.237 ± 0.029
15,AAGATCGT,-0.214 ± 0.0059
16,CTTTTTAC,-0.135 ± 0.049
17,CAGGGTCG,0.195 ± 0.05
18,AAAGATCC,-0.0828 ± 0.036
19,AGGTTCCG,-0.191 ± 0.011
20,CTCTTTTA,0.105 ± 0.092
21,TGCACAAA,0.142 ± 0.03
22,AGCCATAC,-0.241 ± 0.042
23,CCCGGATC,-0.085 ± 0.022
24,AAGGGGGG,-0.444 ± 0.023
25,ACTAGGGC,-0.223 ± 0.012

row,Sequence,PBM E-score of 8-mer
1,ATCCAAAG,-0.212 ± 0.015
2,CGCCGCCG,0.0672 ± 0.087
3,CACAGCGC,0.0941 ± 0.012
4,GTCCTAAC,-0.0938 ± 0.0047
5,CAATCGTA,-0.122 ± 0.015
6,CGGTCTAG,-0.254 ± 0.037
7,GGAGGGCA,-0.0993 ± 0.068
8,CAATTTCA,-0.00885 ± 0.039
9,AAAATACG,0.0554 ± 0.091
10,GACTCTAC,-0.23 ± 0.054
11,CAGTACTG,-0.175 ± 0.0031
12,ATGGATGC,-0.231 ± 0.0052
13,ATTAACCG,-0.197 ± 0.074
14,TACTGGAA,-0.258 ± 0.066
15,AAGTTAGG,-0.187 ± 0.068
16,ACTCCATC,-0.101 ± 0.045
17,AGTGTCAG,0.384 ± 0.017
18,CTTAGGGA,-0.2515 ± 0.0014
19,ACTCGTCA,0.216 ± 0.011
20,ACTTCCCC,-0.0297 ± 0.13
21,TTCGACAA,0.1 ± 0.031
22,ACGTGCAT,0.145 ± 0.017
23,CTAGCACA,0.327 ± 0.024
24,CCCCAACG,0.199 ± 0.088
25,CGAGTAAC,0.00354 ± 0.017

row,Sequence,PBM E-score of 8-mer
1,GTGTATCA,-0.00951 ± 0.055
2,GGACCCTA,-0.21 ± 0.0083
3,GCTGCGGA,-0.0688 ± 0.029
4,CAGCACAC,0.185 ± 0.043
5,ACAACAAG,0.161 ± 0.023
6,ACGTGTAG,0.118 ± 0.015
7,ACCACGTG,0.169 ± 0.053
8,GCATCCCC,-0.0919 ± 0.051
9,GCATACAA,-0.193 ± 0.031
10,AACGGGAA,-0.0825 ± 0.017
11,GGACTCTA,-0.281 ± 0.019
12,ACGGCGAG,-0.0263 ± 0.026
13,ATATCGGG,-0.153 ± 0.03
14,AATGAAGT,-0.0296 ± 0.029
15,TCAAATGA,-0.203 ± 0.019
16,GAATAAAA,0.07 ± 0.053
17,CGTCGGTA,0.0302 ± 0.0035
18,AGTCACCC,-0.0493 ± 0.13
19,AGGGCAGC,0.00521 ± 0.064
20,AAACATGG,-0.239 ± 0.044
21,ATGCACAA,-0.011 ± 0.027
22,TCCTAAGA,-0.272 ± 0.12
23,GTTGTAAA,0.132 ± 0.0099
24,ATATGATG,-0.00711 ± 0.025
25,GCTTGATA,-0.135 ± 0.011

row,Sequence,PBM E-score of 8-mer
1,ACCAGCGC,0.0615 ± 0.063
2,TGTGATAA,0.406 ± 0.046
3,AAGTGCAA,0.343 ± 0.014
4,TGATTCAA,-0.148 ± 0.015
5,CACATGGA,0.141 ± 0.12
6,CAACCGGG,-0.0732 ± 0.013
7,TCGCCCAA,-0.0811 ± 0.07
8,ATGAATAC,-0.152 ± 0.022
9,ACGCGCGG,0.19 ± 0.031
10,ACAATCGA,0.057 ± 0.0036
11,TATACTGA,-0.209 ± 0.012
12,ACAAAGTG,0.2 ± 0.061
13,CTCATAGA,-0.102 ± 0.014
14,AGATAATG,-0.0716 ± 0.012
15,CGTTTGCC,-0.051 ± 0.062
16,ATGAGGAC,-0.403 ± 0.033
17,GCCATCGC,0.0801 ± 0.06
18,ATTATTAA,-0.0822 ± 0.023
19,CACGCCGG,0.213 ± 0.015
20,TGAAAAAA,-0.0298 ± 0.097
21,GCATCACC,0.252 ± 0.02
22,TTCCTAAA,-0.295 ± 0.04
